Usually EC50 stands for the concentration at which the effect is half-maximal.

Where two headings read alike, the source gives them in different places.

Here are results for eight compounds from patent US7439039B2, “Assays for novel serotonin transporter (SERT) blockers” (priority 2003, dated 2008).

The test concerns the target hSERT I172M (Homo sapiens, UniProt P31645, I172M). The class given is cell-based.
Where [1] appears, read: […], inhibition of [3H]5HT uptake, read-out: EC50(μM) I172M.

Regarding `OC1(c2ccc(Cl)cc2)c2ccccc2C2=NCCN21` (stereo not shown) [Mazindol], the concentration for a half-maximal effect (EC50) was found to be 36 µM and the “Fold Δ” value came out at 12.

On to `NCCc1c[nH]c2ccccc12` [Tryptamine], for which the “Fold Δ” value turned out to be 0. Also, the concentration giving a half-maximal response (EC50) (read-out: EC50(μM) I172M) was determined as 0.2 µM.

In the case of `NCCc1c[nH]c2c(O)c(O)c(O)cc12` [5,6,7 trihydroxytryptamine], the “Fold Δ” value is “.2”. Besides, under “read-out: EC50(μM) I172M”, the EC50 is 2.7 µM.

As for `CC(N)Cc1c[nH]c2ccc(O)cc12.O=C(O)/C=C\C(=O)O` (stereo not drawn) [Alpha-methylserotonin maleate], the “Fold Δ” value was 1. For the same compound, the EC50 under setting [1] was determined as 2.3 µM.

Consider `COC(=O)[C@H]1C(c2ccc(I)cc2)C[C@@H]2CC[C@H]1N2C` (stereo partly shown) [RTI-55], for which the “Fold Δ” value was 176. For the same compound, the EC50 under setting [1] was 0.12 µM.

For `CNCCC(Oc1ccccc1OC)c1ccccc1` (stereo not shown) [Nisoxetine], a half-maximal effect (EC50) was put at 197 µM and the “Fold Δ” value was 145.

Turning to `CNC(C)Cc1ccc2c(c1)OCO2` (stereo not shown) [MDMA], the “Fold Δ” value worked out at 1. Further, for the setting “read-out: EC50(μM) I172M”, the EC50 came to 0.8 µM.

Consider `NCCc1c[nH]c2c(O)cccc12` [7-hydroxytryptamine], for which the “Fold Δ” value amounted to 1. Further, the concentration for a half-maximal effect (EC50) (read-out: EC50(μM) I172M) is 1.1 µM.
